# Measured values reported in the supplement of paper PMC9174493.
# Some of the results follow. Single values of this set are uncertain. Values with irradiation are relative to irradiated vehicle.
# How the values were obtained:
# A549-Dual [1] = assay: NF-kB reporter (SEAP) activity, viability-corrected, relative to vehicle (fold change vs vehicle); higher = more activation of STING-IRF / NF-kB immune response reporter; conditions: 10 µM
# A549-Dual [2] = assay: ISRE reporter (Lucia luciferase) activity, viability-corrected, relative to vehicle (fold change vs vehicle); higher = more activation of STING-IRF / NF-kB immune response reporter; conditions: 10 µM
# 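Throughout, for NF-kB reporter (SEAP) activity, viability-corrected, relative to vehicle: viability correction based on the alamar blue assay, with concentrations leaving 10% survival or less dropped.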
Structure (SMILES),NF-kB reporter (A549-Dual [1]; irradiation: 8 Gy/4 fr),NF-kB reporter (A549-Dual [1]; irradiation: none),ISRE reporter (A549-Dual [2]; irradiation: 8 Gy/4 fr),ISRE reporter (A549-Dual [2]; irradiation: none)
NC(=O)CN1CC(O)CC1=O (centres undefined) [Oxiracetam],1,1.3,1.02,1.22
CCC12C=CCN3CCC4(c5ccc(OC)cc5N(C)C4C(O)(C(=O)OC)C1OC(C)=O)C32 (centres undefined) [Vindoline],0.768,0.713,0.982,0.715
Cc1ncc(CNC(=O)N(CCCl)N=O)c(N)n1.Cl [Nimustine Hydrochloride],0.487,0.591,0.566,0.652
COc1ccc(C(=O)N2CCCC2=O)cc1 [Aniracetam],0.699,0.822,0.78,0.76
COc1cccc2c1cc([N+](=O)[O-])c1c(C(=O)O)cc3c(c12)OCO3 [Aristolochic acid A],0.865,0.637,0.818,0.621
CC1OC(OC2C(O)C(O)C(O)C(O)C2O)C(N)CC1NC(=N)C(=O)O.Cl (centres undefined) [Kasugamycin hydrochloride],0.705,0.803,0.56,0.607
CC(=O)C1CCC2C3CCC4CC(O)CCC4(C)C3CCC12C (centres undefined) [Allopregnanolone],0.514,0.768,0.46,0.626
CCC(COC(=O)c1cc(OC)c(OC)c(OC)c1)(c1ccccc1)N(C)C (centres undefined) [Trimebutine],0.735,0.922,0.766,0.731
CCCCCCC(=O)OC1CCC2C3CCC4=CC(=O)CCC4(C)C3CCC12C (centres undefined) [Testosterone Enanthate],0.78,0.864,0.728,0.711
Oc1cccc2cccnc12 [8-Hydroxyquinoline],0.881,0.982,0.967,0.769
CC(=O)OC1CC(OC2C(O)CC(OC3C(O)CC(OC4CCC5(C)C(CCC6C5CC(O)C5(C)C(C7=CC(=O)OC7)CCC65O)C4)OC3C)OC2C)OC(C)C1OC1OC(CO)C(O)C(O)C1O (centres undefined) [Lanatoside C],2.18,2.65,0.133,0.219
Cc1cccc(C)c1NC1=NCCCS1 [Xylazine],0.838,1.48,0.765,0.779
O=C1CCCC2C3CCCN4CCCC(CN12)C34 (centres undefined) [Sophoridine],0.945,1.02,1.02,1.2
CCCCCN(C)CCC(O)(P(=O)([O-])O)P(=O)(O)O.[Na+] [ibandronic acid],0.899,0.881,0.975,0.825
COc1ccc2[nH]cc(CCN)c2c1 [5-Methoxytryptamine],0.739,1.07,0.607,0.745
O=c1cccc2n1CC1CNCC2C1 (centres undefined) [Cytisine],0.539,0.909,0.474,0.488
CN(C)C(=O)Oc1ccc[n+](C)c1.[Br-] [Pyridostigmine Bromide],0.7,0.949,0.716,0.756
O=c1ccc2cc(OC3OC(CO)C(O)C(O)C3O)c(O)cc2o1 (centres undefined) [Esculin],0.718,0.68,0.709,0.632
S=C=NCc1ccccc1 [Benzyl isothiocyanate],1.16,1.03,0.831,1.14
O=C(OC1C[N+]2(CCCOc3ccccc3)CCC1CC2)C(O)(c1cccs1)c1cccs1.[Br-] (centres undefined) [Aclidinium Bromide],0.538,0.907,0.603,0.828
NCC(CC(=O)O)c1ccc(Cl)cc1 [(R)-baclofen],0.618,1.05,0.499,0.655
CCCCCCCCC(=O)NCc1ccc(O)c(OC)c1 [Nonivamide],0.973,0.861,0.831,0.867
Cc1cccc(C)c1NC1=NCCCS1.Cl [Xylazine HCl],0.802,1.26,0.771,0.83

Structure (SMILES),NF-kB reporter (A549-Dual [1]; irradiation: 8 Gy/4 fr),NF-kB reporter (A549-Dual [1]; irradiation: none),ISRE reporter (A549-Dual [2]; irradiation: 8 Gy/4 fr),ISRE reporter (A549-Dual [2]; irradiation: none)
CC[N+](CC)(CC)CC.[Br-] [Tetraethylammonium bromide],0.96,0.869,0.864,0.614
C#CC1(O)C=CC2C3CCC4=CC(=O)CCC4C3CCC21CC (centres undefined) [Gestodene],0.57,0.931,0.332,0.534
CNCC(=O)c1ccc(O)c(O)c1.Cl [Adrenalone HCl],0.697,1.22,0.575,0.626
CC(C)CC1C(=O)N2CCCC2C2(O)OC(NC(=O)C3C=C4c5cccc6[nH]c(Br)c(c56)CC4N(C)C3)(C(C)C)C(=O)N12.CS(=O)(=O)O (centres undefined) [Bromocriptine Mesylate],0.635,1.16,0.476,1.3
C=C1CC2C(CCC3(C)C(=O)CCC23)C2(C)C=CC(=O)C=C12 (centres undefined) [Exemestane],0.905,1.01,0.87,0.863
O=c1[nH]c2ccccc2n1C1CCN(CCCC(c2ccc(F)cc2)c2ccc(F)cc2)CC1 [Pimozide],0.627,0.82,0.225,0.738
CCOC(=O)c1cncn1C(C)c1ccccc1 (centres undefined) [Etomidate],0.658,0.818,0.717,0.803
O=C([O][Na])C(Cl)Cl [Sodium dichloroacetate (DCA)],1.01,0.701,0.964,0.597
CNC.Cl [Dimethylamine hydrochloride],0.976,0.669,0.908,0.495
Br.CN1C2CC(OC(=O)C(CO)c3ccccc3)CC1C1OC12.O.O.O (centres undefined) [Scopolamine HBr trihydrate],0.762,0.451,0.654,0.416
Cl.N=C(N)NN [Aminoguanidine hydrochloride],0.73,0.727,0.751,0.764
CC12CCC(=O)C=C1C=CC1C2CCC2(C)C1CCC2(O)CCC(=O)[O-].[K+] (centres undefined) [Potassium Canrenoate],1.63,2.25,0.646,2.29
CNC1CC(N)C(O)C(OC2OC(CO)C(O)C3OC4(OC(C(N)CO)C(O)C(O)C4O)OC23)C1O (centres undefined) [Hygromycin B],0.855,0.959,1.01,1.22
CN(CC(=O)O)C(=N)NP(=O)([O-])[O-].[Na+].[Na+] [Creatine phosphate disodium salt],1.06,0.853,1.04,0.818
O=C1C=CC(=O)C=C1 [p-Benzoquinone],1,0.777,0.925,0.581
CN1CCC(C(=O)c2cccc(NC(=O)c3c(F)cc(F)cc3F)n2)CC1.CN1CCC(C(=O)c2cccc(NC(=O)c3c(F)cc(F)cc3F)n2)CC1.O=C(O)CCC(=O)O [Lasmiditan succinate],0.559,0.773,0.565,0.612
CCCCCc1cc(O)cc(O)c1 [Olivetol],1.03,1.21,0.766,0.895
CCC1=CC2C(C1)CC2(CN)CC(=O)O (centres undefined) [Mirogabalin (DS-5565)],0.841,1.21,0.692,0.627
CN1c2ccccc2C(NCCCCCCC(=O)[O-])c2ccc(Cl)cc2S1(=O)=O.[Na+] (centres undefined) [Tianeptine sodium],0.635,0.773,0.7,0.71
NCCC(O)(P(=O)([O-])O)P(=O)([O-])O.[Na+].[Na+] [Pamidronate Disodium],0.774,0.753,0.75,0.605
CC(=O)NC1CCSC1=O (centres undefined) [Citiolone],0.948,1.2,0.69,0.506
C[N+]12CCC(CC1)C(OC(=O)C(O)(c1ccccc1)c1ccccc1)C2.[Br-] (centres undefined) [Clidinium Bromide],0.897,1.44,0.656,0.725
CCN1CC2(OC(=O)c3ccccc3NC(C)=O)CCC(OC)C34C1C(CC23)C1(O)CC(OC)C2CC4C1(O)C2OC (centres undefined) [Lappaconitine],0.985,0.963,0.977,0.824
